# Where “and” joins values, the source holds several entries; their conditions need not be identical. Equal entries are not always repeated. The list shows a part of the results. Further columns of the screen follow, without active or inactive calls.
# Columns and labels:
# Assay in all cases: Primary Screen for Target Class Profiling of Small Molecule Inhibitors of Methyltransferases
# [1] = target: Glycine N-methyltransferase (Homo sapiens) (UniProt Q14749); settings: purified enzyme, MTase-Glo SAH luminescence; measured here: GNMT inhibition; at 40 µM; stronger effect = lower value
# Description: (§1) PI: Matthew D. Hall Ph.D. and Quinlin M. Hanson Ph.D.
# (§2) National Center for Advancing Translational Sciences (NCATS)
# (§3) National Institute of Health (NIH), Rockville, MD
# (§4) Target class profiling (TCP) is a chemical biology approach amenable to investigating understudied biological targets. TCP is achieved by developing a generalizable assay platform and applying it to screen a curated set of compound libraries against representative members of a target class. Small molecule methyltransferases (SMMTase) are a subclass of methyltransferase that act on metabolites to modulate signaling pathways, metabolize xenobiotics, or balance the available methyl pool. We screened four curated libraries totaling 27,574 unique compounds against the SMMTases nicotinamide N-methyltransferase (NNMT), phenylethanolamine N-methyltransferase (PNMT), histamine N-methyltransferase (HNMT), glycine N-methyltransferase (GNMT), catechol O-methyltransferase (COMT), and guanidinoacetate N-methyltransferase (GAMT). The data generated by this TCP can be leveraged for informed tool molecule development. For example, in the associated publication we identified a chemotype of HNMT-selective inhibitors. Additionally, we identified a putative SMMTase-selective inhibitor with potential as a tool molecule for studying broader methyltransferase biology.
# (§5) High-through put screening assays were developed at the National Center for Advancing Translational Science (NCATS) for the enzymes NNMT, PNMT, HNMT, GNMT, COMT, and GAMT. Enzymatic activity was measured as a function of SAM cofactor conversion using the MTase Glo kit (Promega) for all enzymes. All assays were performed in 1536-well format with substrates and SAM concentrations at KM values. Enzyme concentration and assay timing were optimized for 10-20% SAM conversion. Initial screening of 27,574 compounds was done as single-point assays using the highest compound concentration (40 uM). […] These compounds were replated in 11-point dose response and assayed against NNMT, PNMT, HNMT, GNMT, COMT, GAMT, and a counter-assay. The IC50 and efficacy (maximal response) values were determined for each dose-response curve. These values are also accounted for in the area under the curve (AUC) values.
# (§6) PROTOCOL TABLE (as described by Inglese J, Shamu CE and Guy RK. 2007)
# (§7) SEQUENCE No. (e.g., 1, 2, 3, etc.); […] (e.g., Cells, Incubation, Reagent, etc.); VALUE; DESCRIPTION.
# (§8) 1; Reagent; 2 uL; SMMTase Enzyme (2x) in reaction buffer, columns 1- 48.
# (§9) 2; Reagent; 1 uL; SAM (4x) in reaction buffer, columns 1-48.
# (§10) 3; Controls; 23 nL; DMSO in column 4; sinefungin in DMSO (0 uM - 40 uM) in 7-point 1:2 dilution series (n = 2) in column 2.
# (§11) 4; Compounds; 23 nL; Columns 5-48.
# (§12) 5; Reagent; 1 uL; Substrate (4x) in reaction buffer, columns 2-48.
# (§13) 6; Time; 20-30 min; Incubation.
# (§14) 7; Reagent; 1 uL; MTase-Glo reagent (5X), columns 1-48.
# (§15) 8; Time; 30 min; Incubation.
# (§16) 9; Reagent; 5 uL; MTase-Glo Detection reagent, columns 1-48.
# (§17) 10; Time; 30 min; Incubation, luminescence evolution.
# (§18) 11; Detection; Luminescence; ViewLux uHTS Microplate Imager (PerkinElmer).
# (§19) NOTES (numbers refer to Sequence numbers above)
# (§20) 1, 2, 5. White Medium Binding Greiner 1536-well plates (Cat #789175-F, Greiner Bio-One, Monroe, NC); Reaction buffer: 50 mM Tris, pH 8.0, 3 mM MgCl2, 1 mM EDTA, 50 mM NaCl, 1 mM DTT, and 0.1 mg/mL BSA. Evaporation was prevented by covering assay plates with metal lids containing holes to allow gas diffusion.
# (§21) 1. Six SMMTase were profiled: HNMT, GNMT, PNMT, COMT, NNMT, GAMT
# (§22) 5. The corresponding substrate was used for each enzyme: HNMT - 5.3 uM Histamine; GNMT - >500 uM Glycine; PNMT - 16.2 uM Norephinephrine; COMT - 13.7 uM Norephinephrine; NNMT - 3.8 uM Nicotinamide; GAMT - 2.5 uM Guanidinoacetate.6, 8, 10. Room temperature
# (§23) 6. Final reaction conditions: 10 nM COMT, 5 uM SAM, 15 uM norepinephrine, 50 mM Tris, pH 8.0, 3 mM MgCl2, 1 mM EDTA, 50 mM NaCl, 1 mM DTT, and 0.1 mg/mL BSA; refer to tables 2 and S1 for specific timing.
# 8. […]
# [2] = target: Guanidinoacetate N-methyltransferase (Homo sapiens) (UniProt Q14353); settings: purified enzyme, MTase-Glo SAH luminescence; measured here: GAMT inhibition; at 40 µM; stronger effect = lower value
# Description: as §1, §2, §3, §4, §5, §6, §7, §8, §9, §10, §11, §12, §13, §14, §15, §16, §17, §18, §19, §20, §21, §22, §23
# 8. […]
# [3] = target: Histamine N-methyltransferase (Homo sapiens) (UniProt P50135); settings: purified enzyme, MTase-Glo SAH luminescence; measured here: HNMT inhibition; at 40 µM; stronger effect = lower value
# Description: as §1, §2, §3, §4, §5, §6, §7, §8, §9, §10, §11, §12, §13, §14, §15, §16, §17, §18, §19, §20, §21, §22, §23
# 8. […]
# [4] = target: Nicotinamide N-methyltransferase (Homo sapiens) (UniProt P40261); settings: purified enzyme, MTase-Glo SAH luminescence; measured here: NNMT inhibition; at 40 µM; stronger effect = lower value
# Description: as §1, §2, §3, §4, §5, §6, §7, §8, §9, §10, §11, §12, §13, §14, §15, §16, §17, §18, §19, §20, §21, §22, §23
# 8. […]
# [5] = target: Phenylethanolamine N-methyltransferase (Homo sapiens) (UniProt P11086); settings: purified enzyme, MTase-Glo SAH luminescence; measured here: PNMT inhibition; at 40 µM; stronger effect = lower value
# Description: as §1, §2, §3, §4, §5, §6, §7, §8, §9, §10, §11, §12, §13, §14, §15, §16, §17, §18, §19, §20, §21, §22, §23
# 8. […]
# % is set by controls: 0 for no effect and ±100 for the full control effect.
Structure (SMILES),"activity change, negative = inhibition [1]","activity change, negative = inhibition [2]","activity change, negative = inhibition [3]","activity change, negative = inhibition [4]","activity change, negative = inhibition [5]"
O=C(CCCN1CCC2(CC1)C(=O)NCN2c1ccccc1)c1ccc(F)cc1,2.33%,13.1%,-17.1%,-2.8%,2.46%
COC[C@H]1OC(=O)c2coc3c2[C@@]1(C)C1=C(C3=O)C2CCC(=O)[C@@]2(C)C[C@H]1OC(C)=O (stereo not given in full),-31.7% and -6.07%,7.39% and 0.561%,1.07% and 1.52%,-1.68% and -10.5%,7.22% and -8.08%
O=C(c1ccccc1)N1C[C@@H](c2ccc3c(c2)OCO3)[C@@H]2[C@H]1C1CCN2CC1,-5.68%,-3.93%,-2.37%,-9.16%,-4.91%
CC1=CC2/C=C(\C)CCC(O)C(O)/C=C/C(=O)C23C(=O)NC(CC(C)C)C3C1C (stereo not given),1.08%,12.2%,4.95%,-2.03%,2.04%
O=C(NCc1ccccc1)N1Cc2ccccc2-n2cccc2C1c1cccs1 (stereo not given),9.08%,0%,-1.96%,-0.058%,5.02%
C[C@]12CC[C@H](O[C@@H]3O[C@H](CO)[C@@H](O)[C@H](O)[C@H]3O)CC1=CC[C@@H]1C2CC[C@]2(C)[C@@H](C3=CC(=O)OC3)CC[C@]12O (stereo not given in full),10.2%,9.05%,10.2%,-3.79%,7.52%
CN1C(=O)N(c2ccc(C#N)c(C(F)(F)F)c2)C(=O)[C@]1(CO)c1ccccc1,6.03%,7.51%,9.55%,-2.26%,7.82%
CCC1c2cccn2-c2ccccc2CN1C(=O)NCc1ccccc1 (stereo not given),-5.7%,0.245%,-17.8%,-9.23%,-3.24%
NCC1(CC(=O)O)CCCCC1,5.66%,10.4%,7.99%,-5.14%,4.67%
Cc1ccc(C2c3cccn3-c3ccccc3CN2C(=O)NC2CCCC2)cc1 (stereo not given),9.1%,0%,4.45%,-1.6%,-6.12%
CN1CCc2cc3c(cc2[C@H]1[C@@H]1OC(=O)c2c1ccc1c2OCO1)OCO3,-8.79%,-14.1%,-0.811%,-23.4%,-8.33%
C[C@@H]1O[C@@H](O[C@H]2C[C@@H](O)[C@]3(CO)[C@@H]4C(CC[C@]3(O)C2)[C@@]2(O)CC[C@H]([C@@H]3COC(=O)C3)[C@@]2(C)C[C@H]4O)[C@H](O)[C@H](O)[C@H]1O (stereo not given in full),3.88%,12%,5.45%,-3.4%,7.58%
CC(C)N1CC2CCC(C1)N2S(=O)(=O)C1CC1,-1.04%,1.18%,-0.567%,-2.66%,0.997%
COC1CC(O[C@H]2CC[C@@]3(C)C(=CCC4C3C(O)[C@@H](O)[C@]3(C)[C@@H](C(C)=O)CC[C@]43O)C2)OC(C)C1OC1CC(OC)C(OC2OC(C)C(O)C(O)C2O)C(C)O1 (stereo not given in full),2.01%,7.09%,11.6%,-5.35%,6.81%
COC(=O)CCNC(=O)N1Cc2ccccc2-n2cccc2C1c1ccc(OC)c(OC)c1 (stereo not given),7.2%,3.02%,0.953%,-4.08%,1.72%
CCc1ccc(C2c3cccn3-c3ccccc3CN2C(=O)Nc2ccc(OC)cc2)cc1 (stereo not given),14.6%,2.5%,5.78%,10.3%,10.2%
OCc1cnc[nH]1,3.41%,7.43%,3.51%,-4.97%,4.81%
O=C(O)CC[N+](=O)[O-],4.91%,12.6%,4.93%,1.14%,9.48%
O=C(NCc1ccccc1)N1Cc2ccccc2-n2cccc2C1c1ccc(Cl)cc1 (stereo not given),2.21%,3.1%,4.29%,4.37%,4.87%
CCOC(=O)CNC(=O)N1Cc2ccccc2-n2cccc2C1c1ccccc1Cl (stereo not given),-1.56%,-8.49%,-4.16%,-15.7%,-5.42%
CCc1ccc(C2c3cccn3-c3ccccc3CN2C(=O)NCCCOC)cc1 (stereo not given),7.03%,2.53%,1.35%,-8.2%,8.26%
COC1=CC(=O)O[C@@H](/C=C/c2ccccc2)C1,-1.4%,-6.97%,7.51%,-18.2%,2.8%
O=C1CN=C(c2cccc(Br)c2)c2oc3ccccc3c2N1,-10.8%,8.46%,-3.54%,-45.4%,-2.47%
COc1cc(O)c2c(c1)CCC[C@@H](O)[C@H](O)C(=O)/C=C\C[C@H](C)OC2=O,-20.7%,-8.24%,0.664%,-13.8%,-8.93%
Cc1ccc(NC(=O)N2Cc3ccccc3-n3cccc3C2c2ccccc2)cc1F (stereo not given),11.4%,0%,8.43%,6.9%,7.26%
CCN1C[C@@]2(COC)C3[C@@H](OC)C4[C@@H]1C3([C@@H]1C[C@]3(O)[C@H](OC(=O)c5ccccc5)[C@@H]1[C@]4(OC(C)=O)[C@@H](O)[C@@H]3OC)[C@H](OC)C[C@H]2O,4.88%,13.3%,5.94%,-0.325%,10.5%
CCOC(=O)Cc1ccc(NC(=O)N2Cc3ccccc3-n3cccc3C2c2ccccc2C)cc1 (stereo not given),9.72%,0.823%,2.99%,3.77%,6.48%
CN1C[C@H](CNC(=O)OCc2ccccc2)C[C@@H]2c3cccc4c3c(cn4C)C[C@H]21,-32.5%,5.42%,5.2%,-10.6%,-35.5%
O=C(NC1CCCC1)N1Cc2ccccc2-n2cccc2C1c1ccc(Cl)cc1 (stereo not given),0.546%,3.72%,5.36%,-2.85%,10.1%

# From PubChem BioAssay AID1745853 (National Center for Advancing Translational Sciences (NCATS), 2022)
